In all, about 200,000 compounds went through this assay and about 560 (0.28%) were called active. Inconclusive results, whose numbers are uncertain, are shown with a selection of clear calls. Calls come from the whole dose curve; as a rule, active = well fitted inhibition curve with a large enough effect; inconclusive = small, poorly fitted or top-dose-only effect; inactive = flat fitted curve, though single readings scatter. Potencies of inconclusive entries are left out as doubtful fits.
Target: Luciferin 4-monooxygenase (Photuris pensylvanica) (UniProt Q27757)
Test: Counterscreen for Luciferase (Kinase-Glo TM) Inhibition; note: nearly all actives have a fitted effect of over 60% in size
Details: ATP luminescence, 8 min; series mostly up to 38.3 µM; activity change, negative = inhibition: at the top concentration
Outline: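 Kinase-Glo luciferase light output from ATP and luciferin was measured with 10 uM ATP, within the enzyme's linear range. Buffer: 50 mM imidazole pH 7.2, 50 mM KCl, 7 mM MgCl2, 0.01% Tween 20, 0.05% BSA; luminescence read after 8 min at ambient temperature.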
% is set by controls: 0 for no effect and ±100 for the full control effect; potency is the fitted concentration of half-maximal effect; tags give direction and shape of the fitted curve.

Structure (SMILES) | Potency | activity change, negative = inhibition
Cc1ccccc1NC(=O)c1nc2nccc(C)n2n1 | inconclusive [inhibitor, single point] | 
O=C(Nc1ccccn1)c1ccc2c(c1)OCCO2 | inconclusive [inhibitor, partial curve] | 
O=C(O)c1ccc2nc3c(nc2c1)-c1ccccc1C3=O | inconclusive [inhibitor, single point] | 
c1ccc2c(c1)Cc1cc3ccccc3nc1-2 | active: 10 µM | 
Cc1ccc(-c2c3c(nc4sc(C(N)=O)c(N)c24)CCC3)cc1 |  | inactive: 3.49%
O=C1NC(=O)/C(=C\c2ccc(Oc3cnccn3)cc2)S1 |  | inactive: 0.424%
Clc1ccc2nc3c4ccccc4cnn3c2c1 | inconclusive [inhibitor, full curve] | 
O=c1c2ccccc2cnn1CCOc1ccccc1 | active: 8.91 µM | 
COc1ccc(NC(=O)C=C(C)C)cc1Cl | inconclusive [inhibitor, partial curve] | 
O=C(Nc1nc2ccccc2[nH]1)c1ccccc1F | active: 2 µM | 
Cc1cc(NC(=O)c2cccc(F)c2)ncc1NC(=O)c1ccco1 | inconclusive [inhibitor, partial curve] | 
CCOC(=O)c1cnc(-c2ccccc2)nc1N | inconclusive [inhibitor, partial curve] | 
CCN1CCc2c(sc(NC(=O)Nc3ccc(Cl)c(Cl)c3)c2C(N)=O)C1 |  | inactive: -0.536%
O=C(O)Cn1cc(/C=C/[N+](=O)[O-])c2ccccc21 |  | inactive: -0.877%
CC(C)c1ccc(Nc2ncccc2C#N)cc1 | inconclusive [inhibitor, single point] | 
C[N+]1(CCCC[N+]2(C)CCCCCCC2)CCCCCCC1 |  | inactive: -6.53% [at 7.66 µM]
O=C(c1ccc(F)cc1Cl)N(c1ccccn1)C1CCCCC1 |  | inactive: 0.163%
Cc1nonc1C(=O)N/N=C/c1ccncc1 | inconclusive [inhibitor, single point] | 
CSc1ccc(/C=N/NC(=O)c2ccc(O)cc2)cc1 | active: 12.6 µM | 
O=C(/C=C/c1ccco1)Nc1ccccn1 | inconclusive [inhibitor, partial curve] | 
COc1cccc(/C=N/Nc2nn3cnnc3c3ccccc23)c1 | active: 3.55 µM | 
COc1ccc(Cn2c(/C=C/c3ccccc3)nc3ccccc32)cc1 | inconclusive [inhibitor, single point] | 
Cc1[nH]n(-c2ccc([N+](=O)[O-])cc2)c(=O)c1/C=N/N1CCOCC1 | inconclusive [inhibitor, single point] | 
COC(=O)c1ccc2c(c1)C(C)(C)C(/C=C/c1ccc(O)cc1)=[N+]2C | inconclusive [inhibitor, partial curve] | 
Cc1ccc(-c2nc3n(n2)Cc2ccccc2-3)cc1 | inconclusive [inhibitor, partial curve] | 
Cc1cccc(NC(=O)c2cc3ccccc3o2)c1 | inconclusive [inhibitor, partial curve] | 

Structure (SMILES) | Potency | activity change, negative = inhibition
COc1ccc(OCc2nc3ccccc3[nH]2)cc1 | inconclusive [inhibitor, partial curve] | 
O=c1[nH]c(Nc2ccccc2)cc2ccccc12 | inconclusive [inhibitor, partial curve] | 
Cc1nc2sc(-c3ccccc3)nn2c(=O)c1Br | inconclusive [inhibitor, partial curve] | 
CCNc1nnc(-c2ccccc2OC)s1 |  | inactive: 1.75%
O=C(C1CCN(S(=O)(=O)c2cccc3cccnc23)CC1)N1CCCC1 |  | inactive: 0.379%
O=C(CSC(=S)N1CCOCC1)c1ccccc1 | inconclusive [inhibitor, partial curve] | 
CN=c1scc(C)n1/N=C/c1ccc(O)c(O)c1O | inconclusive [inhibitor, single point] | 
O=C(Nc1sc2c(c1C(=O)O)CCCCC2)c1ccccc1 | inconclusive [inhibitor, single point] | 
NC(=O)c1ccccc1NC(=O)Nc1ccc(F)c(Cl)c1 | inconclusive [inhibitor, partial curve] | 
CC(C)n1cnc2cc(NCc3nc4ccccc4n3C)ccc21 | inconclusive [inhibitor, partial curve] | 
Nn1cnnc1N/N=C/c1cc(Br)cc(Br)c1O |  | inactive: -3.29%
Cc1c(C(=O)NC2=NCCS2)oc2ccccc12 | inconclusive [inhibitor, single point] | 
Clc1ccc(-c2nc(-c3ccccn3)no2)cc1Cl | active: 10 µM | 
Cc1cc(/C=c2/sc3nc4ccccc4n3c2=O)c(C)n1-c1ccccn1 | inconclusive [inhibitor, partial curve] | 
COc1ccc(NC(=O)Nc2ccccc2C(N)=O)cc1OC | inconclusive [inhibitor, partial curve] | 
N=c1oc2ccccc2cc1C(=O)N/N=C/c1ccccc1 | inconclusive [inhibitor, partial curve] | 
Cc1ccc(-c2cn3nc(C)c(C)nc3n2)cc1 | inconclusive [inhibitor, partial curve] | 
COc1ccc(C(=O)Nc2cc(C(F)(F)F)ccc2-n2cnc3ccccc32)cc1 |  | inactive: -1.49%
COc1ccc(C(=O)N=c2nc3ccccn3s2)cc1 | active: 7.94 µM | 
Oc1ccc(/C=C/c2ccc3ccccc3n2)cc1 | inconclusive [inhibitor, partial curve] | 
O=C(Nc1nc2ccccc2[nH]1)c1ccccc1 | active: 11.2 µM | 
CNC[C@H](O)c1ccc(OC(=O)C(C)(C)C)c(OC(=O)C(C)(C)C)c1 |  | inactive: -4.21% [at 17.1 µM]
CCCN1CCN(c2ncnc3c2nnn3Cc2ccccc2)CC1 |  | inactive: -3.96%
COc1cc(/C=C2/C(=O)ON=C2C)ccc1OCc1ccccc1F | inconclusive [inhibitor, partial curve] | 
Cc1ccc(-c2nc(N/N=C/c3ccncc3)c3ccccc3n2)cc1 | active: 2.24 µM | 
O=C(N/N=C/c1cn(-c2ccccc2)nc1-c1cccnc1)c1ccccc1 |  | inactive: -1.77%

— PubChem BioAssay AID1379 (National Center for Advancing Translational Sciences (NCATS), 2008)
